We go through 20 variants from the RNAGym collection of RNA variant scans (doi:10.7554/elife.90254).

The source gives no read counts; variants with many changes may rest on few reads.

B1: LINE1-full (parent)
chain: UACGUAGGUGGUUUUCCCCUGAUAGUGCUAAGGGGGCCUGGAAGUUUGGACUGGGCAGAGCUCAACACAGCGUGGCAAAGUGGCUGUGGCUAGACUGCCUCUCUGGAUUCCUCGUCACUCAGCAGGGCAUCUCUGAGAGAAAUGCC

Variants of B1 are the subject of the series. Briefly: self-cleavage, relative activity (ratio to wild type); higher = more cleavage; in vitro, sequencing; the parent is a self-cleaving ribozyme.
With CACGUAGGUGGUUUUCCCCUGAUAGAGCUGAGGGGGCCUGGAAGUUUGGGCUGGGCAGAGCUCAACACAGCGUGGCAAAGUGGCUGUGGCUAGACUGCCUCUCUGGAUUCCCUGUCACUCAGCAGGGCAUCUCUGAGAGAAGUGCC [U1C U26A A30G A50G U112C C113U A142G], the self-cleavage was 0.19.

For the variant CACGUAGGUGGUUUCCCCCUGAUAGUGCUAAGGGGGCCUGGAAGUUUGGACUGGGCAGAGCUCAACACAGCGUGGCAAAGUGGCUGUGGCUAGACUGCCUCUCUGGAUUCCUCGUCACUCAGCAGGGCAUCUCUGAGAGGAAUGCC [U1C U15C A140G], the self-cleavage was 0.97.

With CACGUAGGUGGUUGUCCCCUGAUAGUGCUAAGGGGGCCUGGGAGUUUGGACUGGGCAGAGCUCAACACAGCGUGGCAAAGUGGCUGUGGCUAGACUGCCUCUCUGGAUUCCUCGUCACUCGGCAGGGCAUCUCUGAGAGAAAUGCC [U1C U14G A42G A121G], the self-cleavage stood at 0.92.

Take CACGUAGGUGGUUUUCCCCCGAUAGUGCUAAGGGGGCCUGGAAGUUUGGACUGGGCAGAGCUCAACACAGCGUGGCAAAGUGGCUGUGGCUAGACUGUCUCUCUGGAUUCCUCGUCACUCAGCAGGGCAUCUCUGAGAGAAGUGCC [U1C U20C C98U A142G]: the self-cleavage is 0.11.

For the variant CACGUAGGUGGUUUUCCCCUGAUAGAGCUAAGGGGGCCUGGAAGUUUGGACUGGGCAGAGCUCAACACAGCGUGGCAAAGUGGCUGUGGCUAGACUGCCUCUCUGGAUUCCCUGUCACUCAGCAGGGCAUCUCAGAGAGAGAUGCC [U1C U26A U112C C113U U134A A141G], the self-cleavage is 0.34.

Consider CACGUAGGUGGUUUUCCCCUGAUAGCGCUAAGGGGGCCUGGAAGUUUGGACUGGGCAGAGCUCAACACAGCGAGGCAAAGUGGCUGUGGCUAGACUGCCUCUCUGGAUUCCUCGUCACUCAUCAGGGCAUCUCUGAGAGAAAUGCC [U1C U26C U73A G122U], for which the self-cleavage came to 1.18.

Turning to CACGUAGGUGGUUUCCCCCUGAUAGUGCUAAGGGGGCCUGGAAGUUUGGACUGGGCAGAGCUCAACACAGCGUGGCAAAGUGGCUGUGGCUCGACUGCCUCUCUGGAUUCCUCGUCACUCAGCAGGGCAUCUCUGAGAGAAAUGCC [U1C U15C A92C], the self-cleavage amounted to 0.

Take CACGUAGGUGGUUUACCCCUGAUAGUGCUAAGGGGGCCUGGAAGUUUGGACUGGGCAGAGCUCAACACAGCGUGGCAAGGUGGCUGUGGCUAGACUGCCUCUCUGGAUUCCUCGUCACUCAGCAGGGCAUCUCUGAGAGAAACACC [U1C U15A A79G U143C G144A]: the self-cleavage turned out to be 0.39.

Take CACGUAGGUGGUUCUCCCCUGAUAGUGCUAAGGGGGCCUGGAAGUUUGGACUGGGAAGAGCUCAACACAGCGUGGCAAAGUGGCUGUGGCUAGACUGCCUCCCUGGAUUCCUCGUCACUCGGCAGGGCAUCUCCGAGAGAAAUGCC [U1C U14C C56A U102C A121G U134C]: the self-cleavage was 0.

As for CACGUAGGUGGUUUCCCCCUGAUAGUGCUAAUGGGGCCUGGAAGUUCGGACUGGGCAGAGCUCAACACAGCGUGGCAAAGUGGCUGUGGCUAGACUGCCUCUCUGGAUUCCUCGUCACUCAGCAGGGCAUCUCUGAGAGAAAUGCC [U1C U15C G32U U47C], the self-cleavage was 1.41.

Consider CACGUAGGUGGUUCUCCCCUGAUAGUGCUAAGGGGGCCUGGAAGUUUGGACUGGGCAGAGCUCAACACAGCGUGGCAAAGUGGCUGUGGCUAGACUGCCUCUCUGGAUUCCUCGUCACUCAGCAGGGCUUCUCUGAGAGAAAUGCC [U1C U14C A129U], for which the self-cleavage amounted to 0.72.

With CACGUAGGUGGUUUUCCCCUGAUAGAGCUAAGGGGGCCUGGAAGUUUGGACUGGGCAGAGCUCAACACAGCGUGGCGAAGUGGCUGUGGCUGGACUGCCUCUCUGGACUCCUCGUCACUCAGCAGGGCAUCUCUGAGAGAAAUGCC [U1C U26A A77G A92G U108C], the self-cleavage turned out to be 0.81.

On to CACGUAGGUGGUUUUCCCCCGGUAGUGCUGGGGGGGCCUGGAAGUUUGGACUGGGCAGAGCUCAACACAGCAUGGCAAAGUGGCUGUGGCUAGACUGCCUCUCUGGAUUCCUCGUCACUCAGCAGGGCAUCUCUGGGAGAAAUGCC [U1C U20C A22G A30G A31G G72A A136G], for which the self-cleavage amounted to 0.77.

For CACGUAGGUGGUUUACCCCUGAUAGUGCUAAGGGGGCCUGGAAGUCUGGACUGGGCAGAGCUCAACACUGCGUGGCAAAGUGGCUGUGGCUAGACUGCCUCUCUGGAUUCCUCGUCACUCAGCAGGGCAUCUCUGAGAGAAAUGCC [U1C U15A U46C A69U], the self-cleavage stood at 0.08.

Consider CACGUAGGUGGUUCUCCCCUGAUAGUGCUAAGGGGGCCUGGAAGUUUGGACUGGGCAGAGCUCAACACAGCGUGGCAAAGUGGCUAUGGCUAGACUGCCUCUCUGGAUUCCUCGUCACUCAGCAGGGCAUCUCUGAGAGAAAUGCC [U1C U14C G86A], for which the self-cleavage stood at 0.12.

Consider CACGUAGGUGGUUUCCCCCUGAUAGUGCUAAGGGGGCCUGGAAGUUUGGACUGGGCAGAGCUCAACACAGCGUGGCAAAGUGGCUGUGGCUAGACUGCCUCUCUGGAUUCCUCGUCACUCAGCAGGGCACCUCAGAGGGAAAUGCC [U1C U15C U130C U134A A138G], for which the self-cleavage worked out at 1.21.

Take CACGUAGGUGGUUUUCCCCUGACAGUGCUAAGGGGGCCUGGAAGUUUGGACUGGGCAGAGCUCAACACAGCGUGGCAAAGUGGCUGUGGCUAGACUGCCUCUCUGGAUUCCUCGUCACUCAGCAGGGCAUCUCUGAGAGAAGUGCC [U1C U23C A142G]: the self-cleavage was 0.73.

With CACGUAGGUGGUUUUCCCCCGAUAGUGCUAAGGGGGCCUGGAAGUUUGGGCUGGGCAGAGCUCAACACAGCGUGGCAAAGUGGCUGUGGCUAGACUGCCUCUCUGGAUUCCUCGUCACUCAGCAGGGCAUCUCUGAGAGAAAUGCC [U1C U20C A50G], the self-cleavage turned out to be 0.91.

CACGUAGGUGGUUUACCCCUGAUAGUGCUAAGGGGGCCUGGAAGUUUGGACUGGGCAGCGCUCAACACAGCGUGGCAAAGUGGCUGUGGCUAGACUGCCUCUCUGGAUUCCUCGUCACUCAGCAGGGCAUCUCUGAGAGAAAUGCC [U1C U15A A59C]: the self-cleavage is 0.31.

In the case of CACGUAGGUGGUUUCCCCCUGAUAGUGCUAAGGGGGCCUGGAAGUUUGGACUGGGCAGAGCUCAACACAGCGUGGCAAAGUGGCUGUGGCUAGACUGCCUCUCCGGAUUCCUCGUCACUCAGCAGGGCAUCUCUGAGAGAAAUGCC [U1C U15C U104C], the self-cleavage was 0.
